The target in this assay is T1, mouse CbAP40-V5-His6 fusion protein (mouse, UniProt Q18PE0 38-504, radioactively labeled by in vitro transcription and translation with redivue Pro-mix L-[35S]).
T1 construct: Made by in vitro transcription/translation (TNT kit) from pcDNA-mCbAP40; 512 amino acid residues in total with the 45-residue C-terminal tag. 'mature' stands here for the full-length protein; also called mouse CbAP40 protein; mCbAP40; not shown: vector-derived C-terminal tag of 45 amino acid residues (V5-His6)
T1 sequence: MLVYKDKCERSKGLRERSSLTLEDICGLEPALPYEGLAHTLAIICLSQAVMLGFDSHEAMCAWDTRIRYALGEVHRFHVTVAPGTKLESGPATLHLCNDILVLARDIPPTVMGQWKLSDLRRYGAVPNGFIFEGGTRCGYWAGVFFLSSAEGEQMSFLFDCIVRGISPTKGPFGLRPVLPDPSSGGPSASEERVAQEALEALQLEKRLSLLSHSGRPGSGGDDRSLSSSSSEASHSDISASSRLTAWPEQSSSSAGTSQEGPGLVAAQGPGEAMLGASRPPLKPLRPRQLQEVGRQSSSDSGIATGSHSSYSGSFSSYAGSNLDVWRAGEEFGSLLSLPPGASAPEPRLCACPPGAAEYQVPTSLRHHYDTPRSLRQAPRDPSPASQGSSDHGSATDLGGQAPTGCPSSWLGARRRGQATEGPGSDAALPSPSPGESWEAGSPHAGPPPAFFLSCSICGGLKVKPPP
Nature of the assay: GST pull-down with 35S-labeled in vitro translated protein, SDS-PAGE, autoradiography. The protocol: Using the protein GST-Cbl prepared above in (2), the presence or absence of the direct interaction of human and mouse CbAP40 proteins with the c-Cbl protein was confirmed by the GST-pull down method (Zikken Kougaku, Vol. 13, No. 6, 1994, p. 528, Matsushime, et al.). Using 0.5 μg of pcDNA-CbAP40 prepared above in Example 1(4) or pcDNA-mCbAP40 prepared above in Example 8(2) as a template, and additionally using 40 μl of TNT kit (TNT^R Quick Coupled Transcription/Translation System; Promega) and 1.3 MBq of a radioisotope (redivue Pro-mix L-[³⁵S]; Amersham) according to the attached protocol, human or mouse CbAP40 protein radioactively labeled was prepared by in vitro transcription and translation. Then, 15 μl each of the prepared solution of human or mouse CbAP40 protein was mixed with 1 μl of the GST protein or GST-Cbl purified on glutathione beads as described above in (2) to which 0.3 ml of Buffer A (50 mM Tris-HCl, pH 7.5, 10% glycerol, 120 mM NaCl, 1 mM EDTA, 0.1 mM EGTA, 0.5 mM PMSF, 0.5% NP-40) was added. The resulting mixture was shaken at 4° C. for one hour. Subsequently, the protein binding to the GST protein or GST-Cbl on the bead was co-precipitated by centrifugation. […] Consequently, a band never detected in mixing the GST protein was detected in case of mixing GST-Cbl.

B1: GST protein (other)
chain: not shown
notes: Control protein of the GST pull-down, on glutathione beads; also called protein consisting of the GST part alone; product of pGEX-6P-1
Take B1: the binding result is given as “no binding”.

(Values after patent US20070015155A1 (published 2007).)
